Hit rate of the full screen: of about 310,000 compounds, about 2,200 (0.71%) showed an effect of 50% or more. Effects have a minus sign here. The list shows a part of the results.

This assay deals with human ether-à-go-go-related gene (hERG) potassium channel (human, UniProt Q12809). In words: primary screen, population patch clamp on CHO cells stably expressing hERG.
human ether-à-go-go-related gene (hERG) potassium channel, sequence (Q12809 whole entry, looked up): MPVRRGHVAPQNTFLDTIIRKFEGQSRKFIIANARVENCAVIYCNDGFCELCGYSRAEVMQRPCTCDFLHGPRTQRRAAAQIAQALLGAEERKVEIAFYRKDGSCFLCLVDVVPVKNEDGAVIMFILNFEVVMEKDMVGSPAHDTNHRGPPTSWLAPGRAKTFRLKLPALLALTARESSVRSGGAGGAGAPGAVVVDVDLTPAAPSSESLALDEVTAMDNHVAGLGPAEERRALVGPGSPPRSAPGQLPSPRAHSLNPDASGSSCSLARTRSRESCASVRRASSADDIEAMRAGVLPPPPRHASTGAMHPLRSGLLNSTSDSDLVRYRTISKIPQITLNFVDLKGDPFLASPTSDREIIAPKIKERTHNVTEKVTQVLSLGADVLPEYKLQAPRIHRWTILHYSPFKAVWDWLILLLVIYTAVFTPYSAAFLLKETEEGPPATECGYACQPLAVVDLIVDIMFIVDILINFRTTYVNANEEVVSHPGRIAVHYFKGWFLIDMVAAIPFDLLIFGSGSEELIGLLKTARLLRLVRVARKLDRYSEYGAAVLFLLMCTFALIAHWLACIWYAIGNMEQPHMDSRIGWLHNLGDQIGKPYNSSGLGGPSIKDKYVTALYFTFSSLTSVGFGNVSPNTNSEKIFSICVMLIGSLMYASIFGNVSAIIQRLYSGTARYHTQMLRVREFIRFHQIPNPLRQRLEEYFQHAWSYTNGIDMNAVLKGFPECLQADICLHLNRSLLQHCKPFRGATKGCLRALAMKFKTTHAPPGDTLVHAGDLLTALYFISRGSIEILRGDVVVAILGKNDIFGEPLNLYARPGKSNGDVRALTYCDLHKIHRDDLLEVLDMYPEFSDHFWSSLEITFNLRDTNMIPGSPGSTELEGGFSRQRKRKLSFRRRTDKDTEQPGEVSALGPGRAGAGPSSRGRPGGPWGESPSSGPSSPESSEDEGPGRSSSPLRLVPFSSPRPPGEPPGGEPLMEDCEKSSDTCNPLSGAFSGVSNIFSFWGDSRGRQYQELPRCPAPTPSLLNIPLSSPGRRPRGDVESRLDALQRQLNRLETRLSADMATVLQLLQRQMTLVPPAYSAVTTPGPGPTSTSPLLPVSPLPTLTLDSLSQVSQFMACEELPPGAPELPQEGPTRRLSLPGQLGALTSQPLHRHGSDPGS
Turning to `CCc1ccc2[nH]c3nc(N/N=C/c4cccc(O)c4)nnc3c2c1`, the “hERG current change (%, negative = inhibition) at 1uM” value was 10.4%. As for `Clc1cccc(-c2ccc(C=Nc3ccc(N4CCOCC4)cc3)o2)c1`, the figure is 4.98%. As for `CC(C)NS(=O)(=O)c1ccc(OCC(N)=O)c(Cl)c1`, the figure is 16.4%; as for `Cc1cc(-c2ccc(C)c(S(=O)(=O)NCCCN(Cc3ccccc3)C(C)C)c2)on1`, 15.7%; as for `C=C(C)CNC(=S)NN=C1c2ccccc2-c2ccccc21`, 4.21%. `O=C(O)CCn1c(-c2ccccc2)cc2ccccc21`: the “hERG current change (%, negative = inhibition) at 1uM” value amounted to 1.5%. For `c1ccc(COc2ccc(OCCCn3cncn3)cc2)cc1`, the “hERG current change (%, negative = inhibition) at 1uM” value is reported as -4.48%. For the compound `O=C(Nc1ccc(C(=O)N2CCOCC2)cc1)c1cc(-c2cccnc2)nc2ccc(Cl)cc12`, the “hERG current change (%, negative = inhibition) at 1uM” value came to 10.4%.

For the compound `Cc1ccc(C(=O)CNc2cccc([N+](=O)[O-])c2)cc1`, the “hERG current change (%, negative = inhibition) at 1uM” value is on record as 14.7%. Take `COc1ccccc1N1CC(C(=O)Nc2nnc(SCC(=O)NC(C)C)s2)CC1=O` (stereo not shown): the “hERG current change (%, negative = inhibition) at 1uM” value worked out at 12.9%. Regarding `NC(=O)c1ccc(NC(=O)Cc2csc(-c3ccccc3)n2)cc1`, the “hERG current change (%, negative = inhibition) at 1uM” value is listed as 8.68%.

`Cc1ccc(C)c(N2CCN(c3ccncc3N)CC2)c1`: the “hERG current change (%, negative = inhibition) at 1uM” value came to 8.83%. Consider `COC(=O)CCS(=O)(=O)c1cc(Cl)ccc1Cl`, for which the “hERG current change (%, negative = inhibition) at 1uM” value was determined as 14.7%. As for `NC(=O)CCCn1c(C(=O)c2ccc(Cl)cc2)c2ccc([N+](=O)[O-])cc2[n+]1[O-]`, the “hERG current change (%, negative = inhibition) at 1uM” value is recorded as -58.2%. As for `S=c1[nH]ccn1Cc1ccccc1`, the figure is 4.9%. Take `Cc1ccc(NC(=O)CC2C(=O)NCCN2C(=S)Nc2ccccc2)c(C)c1` (stereo not shown): the “hERG current change (%, negative = inhibition) at 1uM” value is 7.95%. Consider `CCOC(=O)c1c(C)[nH]c(C(=O)COC(=O)/C=C/c2ccc(OC(F)F)cc2)c1C`, for which the “hERG current change (%, negative = inhibition) at 1uM” value stood at 12%. In the case of `CCOC(=O)C1ON2CCCCC2C1(O)C(F)(F)F` (stereo not shown), the “hERG current change (%, negative = inhibition) at 1uM” value was found to be 15.8%. `O=C(O)CCSc1ccc([N+](=O)[O-])cc1[N+](=O)[O-]`: the “hERG current change (%, negative = inhibition) at 1uM” value is reported as 11.8%. For the compound `Nc1nc(NCC2CCCO2)nc(Nc2ccc(Cl)cc2)c1[N+](=O)[O-]` (stereo not shown), the “hERG current change (%, negative = inhibition) at 1uM” value is reported as 10.5%. On to `COc1cc(C(=O)OCC(=O)c2cc(C)n(CC3CCCO3)c2C)ccc1OCC(=O)N1CCOCC1` (stereo not shown), for which the “hERG current change (%, negative = inhibition) at 1uM” value came out at 13.1%.

For the compound `CCOC(=O)Cn1cnc2c(C#N)c3n(c2c1=O)CCCCC3`, the “hERG current change (%, negative = inhibition) at 1uM” value was found to be 5.77%. On to `O=C(COc1ccccc1)N(CCc1ccccc1)c1nc(-c2ccc(F)cc2)cs1`, for which the “hERG current change (%, negative = inhibition) at 1uM” value worked out at 4.35%. With `CCOC1CCCCC1NS(=O)(=O)c1ccc(Cl)cc1` (stereo not shown), the “hERG current change (%, negative = inhibition) at 1uM” value stood at 10.3%.

Consider `Cc1cccc(C(=O)NNc2ncnc3c2cnn3C)c1`, for which the “hERG current change (%, negative = inhibition) at 1uM” value was 13.2%. With `Oc1ccc(-c2[nH]ncc2-c2cccc3cccnc23)c(O)c1`, the “hERG current change (%, negative = inhibition) at 1uM” value is reported as 28%. Take `C=CCn1c(-c2sccc2C)n[nH]c1=S`: the “hERG current change (%, negative = inhibition) at 1uM” value turned out to be 15.4%.

In the case of `CC(=O)N1c2ccc(S(=O)(=O)N(C)CC(=O)Nc3ccccc3C)cc2CC1C` (stereo not shown), the “hERG current change (%, negative = inhibition) at 1uM” value is listed as 12.5%. As for `Cc1ccc(NC(=O)/C=C/c2ccco2)cc1S(=O)(=O)N1CCCCCC1`, the figure is 7.46%; as for `O=C(CCC(=O)N1CCN(S(=O)(=O)c2ccc(Cl)cc2)CC1)Nc1cccc(Br)c1`, -7.03%; as for `COC(=O)c1ccc(NC(=O)Cc2ccccc2)cc1`, -2.84%. Then `Cc1cc(C)cc(OCC(=O)N(Cc2ccccc2)C2CCS(=O)(=O)C2)c1` (stereo not shown), with 5.79%. With `O=C(c1cc2ccccc2o1)n1nnc2ccccc21`, the “hERG current change (%, negative = inhibition) at 1uM” value turned out to be 9.55%. Then `COc1ccccc1C1=NOC(COC(=O)c2ccc3ccccc3n2)C1` (stereo not shown), with 0.805%; and `Cc1ccc2c(N)c(C)ccc2c1`, with 5.33%.

In the case of `CC(C)(NC(=O)c1ccccc1)c1nc2ccccc2s1`, the “hERG current change (%, negative = inhibition) at 1uM” value was 7.52%. Then `Cc1nonc1OCCNCCNc1ccc([N+](=O)[O-])cc1Cl`, with -30.9%; and `O=C(CSc1ccc(-c2ccncc2)nn1)c1ccc(Cl)cc1`, with 9.84%.

For the compound `CCOC(=O)CNC(=O)Cn1cnc2c(nnn2-c2cccc(Cl)c2)c1=O`, the “hERG current change (%, negative = inhibition) at 1uM” value was -0.825%.

As for `COc1ccccc1NS(=O)(=O)c1cc(NC(=O)c2[nH]c(C)c(C(C)=O)c2C)ccc1N1CCOCC1`, the “hERG current change (%, negative = inhibition) at 1uM” value is 7.47%. As for `Cc1cc(C)cc(CC2CC(=O)N(c3ccc([N+](=O)[O-])cc3)C2=O)c1` (stereo not shown), the “hERG current change (%, negative = inhibition) at 1uM” value was 11%.

Turning to `O=C(NC12CC3CC(CC(C3)C1)C2)c1ccc(Br)o1`, the “hERG current change (%, negative = inhibition) at 1uM” value was determined as 12.6%. In the case of `CSc1nnc(NC(=O)c2cc3ccccc3oc2=O)s1`, the “hERG current change (%, negative = inhibition) at 1uM” value is given as 8.22%.

For the compound `Cn1ccnc1SCC(=O)c1ccc(OC(F)F)cc1`, the “hERG current change (%, negative = inhibition) at 1uM” value was -6.59%. As to `Cc1cc(COc2ccccc2OCCN2CCN(C)CC2)no1.Cl`, the “hERG current change (%, negative = inhibition) at 1uM” value was 5.65%. Regarding `COc1ccc(NC(=O)c2ccc(N(C)S(C)(=O)=O)cc2)cc1OC`, the “hERG current change (%, negative = inhibition) at 1uM” value amounted to 10.8%. Then `CCC(=O)Nc1ccc(NC(=S)NC(=O)c2oc3ccccc3c2C)cc1`, with 9.94%; and `COc1ccc(-c2nc(-c3ccccc3)[nH]c(=O)c2C#N)cc1`, with 18.4%; and `O=CNCCCc1nc2ccccc2n1CCc1ccccc1`, with 10.3%. Turning to `Cc1cccc2sc(NC(=O)C3=NN(c4ccccc4)C(=O)CC3)nc12`, the “hERG current change (%, negative = inhibition) at 1uM” value was -3.7%. As to `COC(=O)c1cc(NC(=O)Nc2ccccc2OC)cc(C(=O)OC)c1`, the “hERG current change (%, negative = inhibition) at 1uM” value is -2.02%. Regarding `COC(C[C@H]1O[C@@H]1[C@H](O)COCc1ccccc1)OC`, the “hERG current change (%, negative = inhibition) at 1uM” value amounted to 12.7%.

In the case of `O=c1[nH]c(N2CCCCC2)nc2ncn(Cc3ccccc3)c12`, the “hERG current change (%, negative = inhibition) at 1uM” value is reported as 4.24%. For `NS(=O)(=O)c1ccc(NC(=O)COC(=O)c2cccc(S(=O)(=O)N3CCCC3)c2)cc1`, the “hERG current change (%, negative = inhibition) at 1uM” value is 8.5%. Then `COC(=O)Cc1ccc(NC(=S)NNC(=O)c2ccccc2Br)cc1`, with 8.41%.

On to `NC(=O)C1CCN(C(=O)CN(c2cccc(C(F)(F)F)c2)S(=O)(=O)c2ccccc2)CC1`, for which the “hERG current change (%, negative = inhibition) at 1uM” value is 0.903%. `CC1CCC2(CC1)NC(=S)N(c1ccccc1)N2` (stereo not shown): the “hERG current change (%, negative = inhibition) at 1uM” value is 11.1%.

`CCCOc1ccc(C(=O)Nc2cccnc2)cc1`: the “hERG current change (%, negative = inhibition) at 1uM” value came to 11.5%. Then `COc1ccc(C(=O)C2CCCN(C(=O)c3cccnc3OC)C2)cc1F` (stereo not shown), with 7.24%; and `Nc1nnn(CC(=O)N/N=C/c2ccco2)n1`, with 13.2%. Consider `CC1=NN(c2ccccc2)C(=O)C1N=Nc1ccc(C)cc1` (stereo not shown), for which the “hERG current change (%, negative = inhibition) at 1uM” value was 11.1%. Take `CCc1cc2c(=O)c(-c3nc4ccccc4n3C)c(C(C)C)oc2c(CN2CCN(C)CC2)c1O`: the “hERG current change (%, negative = inhibition) at 1uM” value worked out at 6.41%. Turning to `Cc1c(Cc2ccc3c(c2)OCO3)sc(NC(=O)c2ccccc2)c1C(N)=O`, the “hERG current change (%, negative = inhibition) at 1uM” value is recorded as 7.04%.

Regarding `Nc1nnc(N2CCCCC2)s1`, the “hERG current change (%, negative = inhibition) at 1uM” value was 4.04%.

For `Cn1c(O)c(/C=C2/C=CC=N2)c(=O)[nH]c1=O`, the “hERG current change (%, negative = inhibition) at 1uM” value came to 5.15%. Consider `Cc1ccc2[nH]c(=O)c(CN(Cc3cccnc3)C(=O)c3ccncc3)cc2c1`, for which the “hERG current change (%, negative = inhibition) at 1uM” value was -1.51%.

On to `CN(c1ccccc1C(=O)NC1CCCCC1)S(=O)(=O)c1ccccc1`, for which the “hERG current change (%, negative = inhibition) at 1uM” value worked out at 13.6%. In the case of `CCCOC1OC(=O)c2c1ccc(OC)c2OC` (stereo not shown), the “hERG current change (%, negative = inhibition) at 1uM” value worked out at 11.9%. As for `CCCCn1c(CN2CCN(C(=O)c3ccco3)CC2)nc2c1c(=O)n(C)c(=O)n2C`, the “hERG current change (%, negative = inhibition) at 1uM” value was -7.1%. As for `COc1ccc(/C=C(\NC(=O)c2ccccc2)C(=O)NC2CCS(=O)(=O)C2)cc1` (stereo not shown), the figure is 1.37%; as for `COc1ccc(CNC(=O)COC(=O)CCCOc2ccc(Cl)cc2Cl)cc1OC`, 10.4%. `Cc1cc(S(=O)(=O)N2CCCC2)ccc1OCC(=O)N1CCCCC1`: the “hERG current change (%, negative = inhibition) at 1uM” value is -8%. With `O=C(CCCCCCCC(=O)c1ccccc1)c1ccccc1`, the “hERG current change (%, negative = inhibition) at 1uM” value is given as 13.1%. Take `COc1ccc(-n2nnnc2SCC(=O)Nc2ccc3c(c2)OCCO3)c(OC)c1`: the “hERG current change (%, negative = inhibition) at 1uM” value is given as 16.9%. Then `O=C(O)c1cccc(NC(=O)c2cn(-c3ccccc3)nc2-c2cc3ccccc3o2)c1`, with 1.13%; and `O=C(Nc1ccccc1)c1oc2ccccc2c1NC(=O)C1CC1`, with 5.44%. On to `C=CCC(C#Cc1ccc(C)cc1)N(CC)CC` (stereo not shown), for which the “hERG current change (%, negative = inhibition) at 1uM” value is listed as 7.85%. Consider `Cc1ccc(CNC(=O)c2ccc(N3CCC4(CC3)CC(c3ccccc3)=NO4)c(N)c2)cc1`, for which the “hERG current change (%, negative = inhibition) at 1uM” value came out at 10.8%. For the compound `COc1cc(OC)cc(C(=O)NC2CCCCCCC2)c1`, the “hERG current change (%, negative = inhibition) at 1uM” value is reported as 3.21%. `O=C(O)COn1c(-c2ccccc2)nc2ccc([N+](=O)[O-])cc21`: the “hERG current change (%, negative = inhibition) at 1uM” value came to 15.7%.

As for `OCCCC1CCCN(Cc2cn[nH]c2-c2ccc(F)cc2F)C1` (stereo not shown), the “hERG current change (%, negative = inhibition) at 1uM” value turned out to be 9.16%. As for `Cc1cc(C)n2nc(C(=O)NC(c3ccccc3)c3ccccc3)nc2n1`, the “hERG current change (%, negative = inhibition) at 1uM” value is reported as 9.57%. As for `Cc1noc2ncnc(Oc3ccc(Cl)cc3Cl)c12`, the figure is 8.47%.

For `CCCC(=O)Nc1ccc(NC(=S)NC(=O)c2cccs2)cc1`, the “hERG current change (%, negative = inhibition) at 1uM” value was 13.1%. Consider `CC(=O)N1CC2(NC(=O)c3ccccc3N2)c2ccccc21` (stereo not shown), for which the “hERG current change (%, negative = inhibition) at 1uM” value stood at 10.2%. Consider `COc1ccc(C2=NS(=O)(=O)N(C)C(C(=O)NCc3ccccn3)=C2)cc1`, for which the “hERG current change (%, negative = inhibition) at 1uM” value is -5.31%.

Regarding `O=C1c2ccccc2C(=O)N1OS(=O)(=O)c1ccc(F)cc1`, the “hERG current change (%, negative = inhibition) at 1uM” value came out at 13.9%. On to `CCOC(=O)Nc1cccc(Nc2ccccc2)c1`, for which the “hERG current change (%, negative = inhibition) at 1uM” value is recorded as -24.3%. For `Cn1nc(C(=O)NCc2ccc(F)cc2)c2ccccc2c1=O`, the “hERG current change (%, negative = inhibition) at 1uM” value stood at 9.21%. `COc1cccc(NC(=O)COc2ccccc2C(N)=O)c1`: the “hERG current change (%, negative = inhibition) at 1uM” value is recorded as -0.822%. As for `CCn1c2ccc(F)cc2c2nnc(NN)nc21`, the figure is 3.31%.

The values above are taken from PMC4336329 (PLoS ONE, 2015).
